# Reference: the supplement of paper PMC11417369
# ± gives the standard deviation of the averaged measurements. The list shows a part of the results.
# System: PfAP2-I AP2 domain 3 (GST-tagged)
# Assay: gcPBM binding intensity (ln(normalized median fluorescence intensity)); higher = stronger DNA binding
# In short: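 In this array assay, P. falciparum DNA-binding domains with a GST tag, expressed in E. coli, were applied for 1 h to primer-extended double-stranded 36-bp intergenic genomic probes and negative controls on an Agilent 4 × 180k array. Bound protein was visualised with Alexa488 anti-GST antibody at 488 nm. Binding intensity is the highest Masliner-normalised natural-log median intensity across replicate spots of either probe orientation.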
row,Sequence,gcPBM binding intensity (ln)
1,GAATATAATCTGTATTGTACGAAAGTTGAACACTTG [XGTACX_site8895],8.09
2,TGAGCATAAAAAGGGTGTACTTAAATATATTATATA [XGTACX_site7556],8.07 ± 0.27
3,TTTAGATAATTCATTACACACATGTATTTATATATA [CACACA_site5847],7.65 ± 0.57
4,TATATATATATATATATATATACAAATATATATTAT [CACACA_negctrl_site1729],9.31 ± 0.66
5,TTGTATTATTATGTTGCACACATTTTATATAAAATA [CACACA_site3641],9.5 ± 0.099
6,ATAAAAGATATTTTTACACACTTTTGATGAGATCGT [CACACA_site3053],7.76 ± 0.72
7,GGTTGTATAAGTTTTTGTACATATATATATATATAT [XGTACX_site7487],9.26 ± 0.49
8,TTCAAGGTTTTAGATTGTACAATTATTATATATATA [XGTACX_site8982],8.56 ± 0.45
9,ATACCAACATATTATACACACCTTTATATTTTTTTT [CACACA_site5217],8.2 ± 0.57
10,TTTATTATACAAAATTGTACTTTATAATTTTATGTA [XGTACX_site5846],7.62 ± 0.35
11,AAATATTACGGAATAAAGAGCTTTTAAATAATTTTA [CACACA_negctrl_site1700],7.22 ± 0.66
12,AAATATAAACGGCACACACACAAAAAAAGAAAAAAA [CACACA_site649],8.15 ± 0.26
13,AGAAACCTTGTTAGTTAGCATATATATATATATATA [CACACA_negctrl_site372],9.46 ± 0.46
14,TATTTTATACATATTTTACACACTAATATATACATA [CACACA_site7998],7.95 ± 0.47
15,AAATGTTATAACTCTTGAAAAAACAAAATATCATCA [CACACA_negctrl_site1156],7.57 ± 0.49
16,ACTTTACAATATATATGTACATATTAATAAACATAT [XGTACX_site3689],8.06 ± 0.43
17,AAAATAATATATGTATGTACATATACACATATAGAA [XGTACX_site2218],7.65 ± 0.4
18,GAGTTTTTTTAATGATGTACATTTTAAAAATAAACG [XGTACX_site1036],7.88 ± 0.19
19,GAACGCCATTCACATAAAGGGATACATAAATAAATA [XGTACX_negctrl_site330],7.69 ± 0.34
20,GCGTTATTAAATAATTCACACACATATATATATATA [CACACA_site8711],9.36 ± 0.33
21,AAGAAAAACTTTACGTGTACCAAACGTCATGCCAAC [XGTACX_site2575],7.76 ± 0.7
22,TAATTTCTTATGTATTGTACAAATAATGTATGATAT [XGTACX_site270],8.04 ± 0.36

row,Sequence,gcPBM binding intensity (ln)
1,AATCACAAATAAAATAATATGACACAATATAAAATA [CACACA_negctrl_site537],7.71 ± 0.63
2,TACTTACACTGTTTTTGTACTTATTTCCCTTTTATT [XGTACX_site2158],8.11 ± 0.85
3,TTCTTGTATTTTCATAGTACATATAATGTCGTATTA [XGTACX_site600],7.87 ± 0.57
4,TTTATAAAAATGAACACACACATATATATATATATA [CACACA_site3493],9.56 ± 0.67
5,AAATATTTATAGGTTTGTACTTATAAATAAAAAAAA [XGTACX_site7360],7.83 ± 0.41
6,AATATGAAAAGATGAACAACAAAATGGAGAACAATA [GTGCAC_negctrl_site612],7.99 ± 0.69
7,ATACAAAATTTTTAAGAACACACAAAAATGTACTAT [CACACA_site8817],7.79 ± 0.61
8,TGAGGTAACTAAATATGTACGTAACGAAGATACATA [XGTACX_site8231],7.62 ± 0.38
9,ATTCATTCATATGTTACACACACACGCCCACATAAA [CACACA_site7513],8.36 ± 0.62
10,TAAAAAAAGGTTATTGGTACACACATATGTATATAT [XGTACX_site1029],7.81 ± 0.57
11,TTATATATATATATATATATTTACATAATAATATGT [GTGCAC_negctrl_site388],8 ± 0.39
12,TAAACTTTCCAGTGTTGTACATAATAATTATTATAT [XGTACX_site8896],7.79 ± 0.44
13,AAAGATATGAAATATACACACTTCTTTGGTATTATT [CACACA_site6352],7.43 ± 0.71
14,TATTTATGTATATGCTGTACGCATTTGTGAAACATA [XGTACX_site4688],8.19 ± 0.25
15,AACCAATTAGAAGGATCCAGAACTTATTTGTTTTTA [CACACA_negctrl_site1744],7.22 ± 0.44
16,AGTTTGTCAATCAACACACACCTATTTATTATATAT [CACACA_site6030],7.89 ± 0.42
17,TACAAGCCCAATTCAAGTACATATATATATATATAT [XGTACX_site5569],9.32 ± 0.23
18,TCATATATCATAACAGTGCAAAAAAAAAAAAATTAT,10.09 ± 0.014
19,AGAAAATATACAAAACGTACTTATATATTATATCTA [XGTACX_site3104],7.46 ± 0.3
20,AAAAAAAAAAAAGAAACACACATATATATATATATA [CACACA_site140],9.34 ± 0.057
21,GTTTGATTAAACTTGACACACATATATATAAATATA [CACACA_site1784],7.8 ± 0.49
22,GTTAGAGGGAAAAAGAGTACATATATGTGGATAATT [XGTACX_site2064],8.3 ± 0.76

row,Sequence,gcPBM binding intensity (ln)
1,GTTGCGTATATATACACACATACATATATATATATA [CACACA_site1607],9.29 ± 0.39
2,TTATATAATAAAAATTGTACATATTATATATATATT [XGTACX_site3427],7.49 ± 0.4
3,TATGAAAGAAATAGTACACACATAAACATTTGTAAA [CACACA_site2783],7.86 ± 0.21
4,TAATATTCAATTATACGTACACATATATATATATAT [XGTACX_site4245],9.33 ± 0.54
5,TTACGCATACTAATTACACACAAATAGATGAATATA [CACACA_site1338],8.06 ± 0.3
6,ATAAAAAAATAAATTAGTACATATATATATATATAT [XGTACX_site6971],9.41 ± 0.26
7,TTAAATTAAAACAAATGTACAAAGTGCATATTTTTT [XGTACX_site8143],9.45 ± 0.15
8,ATTTTTTTTTCTTTCGCACACGTGAAAGAATTTCTA [CACACA_site2052],8.46 ± 0.53
9,ATAATTTAATACTAGTGTACAGAAAAAAAAAAAAAA [XGTACX_site6756],8.19 ± 0.58
10,ATATTATATTATATAACACACATTTTTCATAACACT [CACACA_site407],7.99 ± 0.65
11,TGTTTAAATTTTTTGTTTTTTTTTTTATAAAGCAAA [TGCATGCA_negctrl_site313],7.48 ± 0.21
12,ACATATATATATAAATATATATATATATAAATATAT [CACACA_negctrl_site895],7.92 ± 0.36
13,GTTGAACATAGATGCACACACATAAAATAAAAAAAA [CACACA_site5353],8.76 ± 0.057
14,TTGTTGTTATTTAAAACACACATCAATCATCTTAAC [CACACA_site1142],7.55 ± 0.5
15,TGAAGGTCAGTTCACAGTACCCAGTAACTCTACGGA [XGTACX_site2554],7.24 ± 0.54
16,TATATTTTTTTAAAAAGTACTTTGTATATATATATA [XGTACX_site1300],9.32 ± 0.63
17,AAAAAACACAGACACACACACATATACATACATACA [CACACA_site2666],8.55 ± 0.78
18,ATATTTCGTCTAAAAAGTACACAACAATAAAAAGTA [XGTACX_site6668],8.04 ± 0.5
19,TTAGGTTTATACACTACACACATTATTCATAAAAAA [CACACA_site871],7.96 ± 0.38
20,TTTTTTAAATAATATTGTACAAAAAATGTATAAATA [XGTACX_site3010],7.92 ± 0.22
21,AAGTGTATACAGAAGAGTACAAACAATTTTTTTCTT [XGTACX_site7387],7.71 ± 0.64
22,TATATATATTTAAGGTGTACATAAATAACAAAATAT [XGTACX_site2641],8.21 ± 0.61

row,Sequence,gcPBM binding intensity (ln)
1,TTTTCATTTATGTATATATTTATTTTGATTTAATGT [GTGCAC_negctrl_site607],7.47 ± 0.56
2,AAAATTATAAATCTTGCACACAAAAAAAATAATAAA [CACACA_site8771],8.43 ± 0.071
3,TAAATATATTCAATCACACACATTCGTTTTTTTTTT [CACACA_site234],7.53 ± 0.69
4,AATTATTTTATGTGAGGTACACCACACATGAAGGGG [XGTACX_site8450],8.3 ± 0.31
5,TATTGTTATGTCGTTATTAACTTTCTTTAATTAATT [CACACA_negctrl_site174],7.81 ± 0.54
6,AAATATTCATAGTATACACACATTTATATATAATCA [CACACA_site771],8.01 ± 0.33
7,TGAAAGTTCAATAATTGTACATGTGGAAATTCATAC [XGTACX_site1378],8.24 ± 0.55
8,ACCCATTTAACAAAATGTACATTATTATAATTACTT [XGTACX_site7105],8.02 ± 0.58
9,AAATTTTAAATAGTATGTACGTATGAAATATATATG [XGTACX_site7511],8.17 ± 0.47
10,ATTTAAATACAAAATTGTACTTTTCTATATTTAACA [XGTACX_site6146],7.79 ± 0.41
11,TTTGGAAAAAAATTATTTAAACGATATGAATTGATG [XGTACX_negctrl_site506],7.65 ± 0.65
12,AAAATTTTACAGAAGGTGCGTATATTTTCCTGCTTA [GTGCAC_site9643],9.69 ± 0.085
13,TACAATATTTTGAGACGTACATATATACATTTACAT [XGTACX_site5880],7.71 ± 0.46
14,CTTACCAAAAGACACACACACACAAGATATATAAAT [CACACA_site6964],7.82 ± 0.52
15,AAATTAAAATAAAAATGTACATATAAAGACACAACT [XGTACX_site3132],8.57 ± 0.37
16,TATATATATATACCAACACACATACAGATATATATA [CACACA_site5060],9.16 ± 0.42
17,TTTATATACAAAAATGCACACGAAAAGTAATATATA [CACACA_site9387],8.53 ± 0.63
18,TGTAAGTCGTTATAAGCACACACATAAATAAAAATA [CACACA_site8448],8.31 ± 0.24
19,TGAACTTACTTGGACATACACACATATATATATATA [CACACA_site2977],9.6 ± 0.47
20,AAGCCCATTATTAAATGTACAAAATTTTATAAACTA [XGTACX_site7800],7.68 ± 0.64
21,TATAGGTATTTATATACACACATATTCTTTTTACAC [CACACA_site6686],7.88 ± 0.37
22,GTATATATGTATATATGTACATATATATAATATATT [XGTACX_site56],8.34 ± 0.91
